The full ranking holds about 110,000 compounds; the median of “z-score” is about -0.1, and the highest 2% start at about 2. This is one part of the list. Active and inactive are the calls of the source.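 How the source made its calls: active means z-score in the third read window above 3 or below -3; inactive means the rest.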

The assay concerns the target Metabotropic glutamate receptor 8 (Rattus norvegicus) (UniProt P70579). As to the kind of experiment: mGluR8 Gi/Go-coupled signaling modulation – cell-based, rat, thallium flux, HTS, primary screen (AID 488969). The settings on record: HEK293 rat mGluR8, GIRK (G protein-gated inwardly rectifying potassium channel) thallium flux, FluoZin2; at 10 µM; stronger effect = higher value; submaximal glutamate (EC20) added with thallium.
Chain of UniProt P70579 (P70579 whole entry, looked up): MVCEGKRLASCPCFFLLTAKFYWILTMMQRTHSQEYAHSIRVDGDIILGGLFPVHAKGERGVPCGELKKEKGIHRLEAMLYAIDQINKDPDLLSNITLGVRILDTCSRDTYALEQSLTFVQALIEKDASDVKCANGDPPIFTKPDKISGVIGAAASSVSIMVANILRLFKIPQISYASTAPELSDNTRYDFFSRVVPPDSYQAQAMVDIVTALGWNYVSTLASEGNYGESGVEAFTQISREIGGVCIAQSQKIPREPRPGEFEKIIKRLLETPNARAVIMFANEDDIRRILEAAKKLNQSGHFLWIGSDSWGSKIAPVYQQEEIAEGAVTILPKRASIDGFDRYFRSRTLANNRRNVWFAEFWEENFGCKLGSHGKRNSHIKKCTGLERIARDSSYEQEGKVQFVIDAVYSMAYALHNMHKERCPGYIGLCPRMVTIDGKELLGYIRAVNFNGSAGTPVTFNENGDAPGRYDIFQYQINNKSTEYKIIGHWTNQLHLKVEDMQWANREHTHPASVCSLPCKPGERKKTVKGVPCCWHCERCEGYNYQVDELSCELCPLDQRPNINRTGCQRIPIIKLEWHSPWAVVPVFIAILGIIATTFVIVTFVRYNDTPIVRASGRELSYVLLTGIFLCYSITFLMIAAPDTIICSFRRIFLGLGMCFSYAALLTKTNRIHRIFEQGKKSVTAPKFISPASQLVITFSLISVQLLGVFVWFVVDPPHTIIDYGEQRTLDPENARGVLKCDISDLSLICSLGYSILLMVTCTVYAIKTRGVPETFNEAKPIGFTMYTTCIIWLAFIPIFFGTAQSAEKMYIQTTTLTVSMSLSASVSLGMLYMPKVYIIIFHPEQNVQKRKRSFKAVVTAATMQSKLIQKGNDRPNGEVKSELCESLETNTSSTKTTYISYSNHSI
Turning to `CCOC(=O)CSc1nnc(NC(=O)c2cccc([N+](=O)[O-])c2C)s1`, the z-score came out at 0.774.
The value for `Cc1ccc2nc(NC(=O)c3ccc(Cn4cc(Cl)cn4)o3)sc2c1` was -0.0112; that for `Cc1ccc(N2CC(C(=O)OCc3ccc([N+](=O)[O-])cc3)CC2=O)cc1` (centres undefined) was -0.517; that for `CC1CCN(S(=O)(=O)c2ccc(NC(=O)CN3CCN(c4ccccc4)CC3)cc2)CC1` was 0.0353.
`COc1ccc(C(=O)Nc2cc(C)cc(C)c2)cc1S(=O)(=O)N1CCOCC1`: the z-score was -0.311.
The compound `CCOC(=O)N1CCN(CC(O)COc2c(OC)cccc2OC)CC1` (centres undefined) yielded a z-score of 0.676.
Take `O=C(NCc1ccccc1)C(C(=O)c1ccc(F)cc1)n1ccccc1=O` (centres undefined): the z-score worked out at 1.37.
The value for `O=C(Nc1nnc(-c2ccc(Cl)cc2)o1)c1nc2ccccc2s1` was active: 4.07; that for `CC(C)(C)NC(=O)C(c1ccccc1F)N(Cc1ccco1)C(=O)c1csnn1` (centres undefined) was 1.63.
`COC(=O)C1CCN(c2nc3ccccc3nc2C(C#N)C(=O)OCC(C)C)CC1` (centres undefined) returned a z-score of 0.0146.
The value for `Cc1ccc(N(CC(=O)Nc2cc(Cl)ccc2Oc2ccccc2)S(C)(=O)=O)cc1C` was -0.153; that for `COc1ccc(CN2C(=S)NC(C)(C)CC2(C)O)cc1` (centres undefined) was -0.287.
`Cc1nc2c(-c3ccccc3)c(C)[nH]n2c(=O)c1Cl`: the z-score was active: -3.24.
As for `O=C(/C=C/c1ccccc1[N+](=O)[O-])NCc1cccnc1`, the z-score stood at 0.162.
The compound `Cc1cc(C)c(NC(=O)Cn2nnc(C(=O)NCc3cccs3)c2N)c(C)c1` came in with a z-score of -0.11.
`CCOC(=O)C1CCCN(C(=O)COc2ccccc2O)C1` (centres undefined) showed a z-score of 0.0285.
On to `CCc1ccc(N2C(=O)CN(Cc3ccc(OC)c(OC)c3)C2=S)cc1`, for which the z-score is -0.147.
In the case of `CC(=O)c1cnc2cc(-c3ccccc3)nn2c1C`, the z-score amounted to 0.362.
`Cc1nc2nc(COc3ccccc3)nn2c(C)c1Cl` displayed a z-score of -0.597.
The value for `c1ccc(-n2nnnc2-c2cnc(-c3ccncc3)nc2-c2cccs2)cc1` was -0.663; that for `COc1ccc(OCCSc2nnc3sc4ccccc4n23)cc1` was -1.11; that for `CC12CCC(C(=O)N(CC(O)CN3CCCCCC3)C1=O)C2(C)C` (centres undefined) was 0.13.
Compound `O=C(CSc1nnc2c(Cl)cc(Cl)cn12)N1CCN(c2ccc(F)cc2)CC1` yielded a z-score of -0.0326.
Take `O=C(CCSc1ccccc1)N1CCOCC1`: the z-score amounted to 0.751.
The compound `CCCCNC(=O)c1ccc2c(c1)ncn2C1CCCC1` displayed a z-score of -0.0454.
Consider `O=C(CCC(=O)N(c1ccccc1)C(C(=O)NC1CCCC1)c1ccncc1)Nc1cccnc1` (centres undefined), for which the z-score came to 0.244.
With `CC1CCN(C(=O)CNC(=O)c2ccc(Cl)cc2Cl)CC1`, the z-score is -0.0798.
`Brc1cc2c(cc1C1Nc3ccccc3C3C=CCC31)OCO2` (centres undefined) gave a z-score of 0.172.
Under `Cc1cc(C)cc(OC2CCCCC2NS(=O)(=O)c2ccccc2)c1` (centres undefined) stands -0.848; under `Cc1ccc(OCC(=O)Nc2ccc(N3CCOCC3)cc2)cc1`, -0.356; under `Cc1cccc(NC(=O)CCn2ccnc2C)c1`, 1.08.
Under `Cc1nn(-c2ccccc2)c2nc(C(F)(F)F)[nH]c(=O)c12` stands -0.113; under `CN(Cc1nc(-c2ccccn2)no1)S(=O)(=O)c1ccc(Br)cc1`, 0.403.
Compound `COC(=O)c1cc(OC)c(OC)cc1NC(=O)c1cc(-c2ccccc2)nc2ccccc12` registered a z-score of -0.917.
For the compound `Cc1onc(-c2ccccc2)c1C(=O)NNC(=S)NC(=O)c1ccc(Cl)cc1Cl`, the z-score is 0.272.
The compound `CC(/C=N/NC(=O)c1ccc(CN2c3cccc4cccc(c34)S2(=O)=O)cc1)c1ccccc1` (centres undefined) registered a z-score of -0.557.
Consider `Cc1onc(-c2ccccc2Cl)c1C(=O)NCCn1ccc2ccccc21`, for which the z-score is 0.0809.
On to `Cc1ccc(C)c(S(=O)(=O)N2CCCOC2CNC(=O)C(=O)NCCCn2ccnc2)c1` (centres undefined), for which the z-score came out at 0.19.
Under `Nc1nnc(SCc2coc(-c3ccc(Cl)cc3)n2)s1` stands 0.0719.
As for `COC(=O)C(OC(=O)c1ccc(OC)cc1)C(=O)OC`, the z-score came to 0.00696.
`CCN(CC)c1ccc(/C=N/Nc2nc3ccccc3[nH]2)c(O)c1` gave a z-score of -0.178.
As to `COc1ccc(CN(CCO)CCO)cc1[N+](=O)[O-]`, the z-score worked out at 0.405.
The value for `O=C(CCNS(=O)(=O)c1cccs1)Nc1nccs1` was -0.101; that for `COc1cccc2cc(C(=O)N3CCN(c4ccccn4)CC3)c(=O)oc12` was -0.0562.
`O=C(COc1ccc2ccccc2c1Br)NNC(=O)Nc1ccccc1` yielded a z-score of -0.0526.
In the case of `COCCn1c(SCC(=O)N2CCCc3ccccc32)nc2c(c1=O)SC(C)C2` (centres undefined), the z-score was -0.393.
`CCOc1ccc2c(C)nc(NC3=NC(C)(C)C=C(C)N3)nc2c1` showed a z-score of 1.18.
For `CCOc1ccc(CCNC(=O)C2CCCN(c3nnc(-n4cccc4)s3)C2)cc1OCC` (centres undefined), the z-score worked out at 0.457.
`COCCN(C(=O)CNC(=O)c1ccco1)C(C(=O)NC1CCCCC1)c1cccc(OC)c1` (centres undefined): the z-score is -0.311.
`O=C(COC(=O)CNC(=O)c1cccc(F)c1)NCCC1=CCCCC1` showed a z-score of -0.7.
Compound `COc1ccc(NC(=O)CSc2nncs2)cc1OC` had a z-score of 0.0455.
The compound `CCOC(=O)C1=C(c2ccccc2)NC(=S)NC1c1cc([N+](=O)[O-])ccc1OC` (centres undefined) displayed a z-score of 0.0688.
Turning to `Cc1ccc(NC(=O)/C(=C\c2cccc(Br)c2)NC(=O)c2ccco2)cc1`, the z-score was -0.288.
Regarding `O=C1C=C(c2ccccc2)C[C@H](c2cccs2)[C@H]1n1cnc([N+](=O)[O-])c1`, the z-score was -0.822.
`CC1=C(C(=O)N(C)CCC#N)C2(CCCCC2)OC1=O` came in with a z-score of 0.484.
`COC(=O)c1[nH]c2cccc(Cl)c2c1NC(=O)CN1CCCCC1C` (centres undefined) returned a z-score of 0.263.
Under `CCOC(=O)C(C)On1c(-c2ccccc2)nc2ccc([N+](=O)[O-])cc21` (centres undefined) stands -0.0477.
`c1ccc(-c2onc3c2CCCC3)cc1` displayed a z-score of -0.0458.
The value for `Cc1ccc2c(c1)C(=NC1CCCCC1)c1cc3ccccc3nc1-2` was -0.0871.
Compound `Cc1cccn2c(=O)c(/C=C3\SC(=S)N(CC(C)C)C3=O)c(NCCCOC(C)C)nc12` had a z-score of -0.103.
`CCOc1ccc(-c2nc(C#N)c(N3CCN(Cc4ccccc4)CC3)o2)cc1` returned a z-score of 0.123.
Compound `O=C1CC(c2ccccc2)CC(=O)C1Sc1ccc(Cl)cc1` (centres undefined) returned a z-score of -0.107.
As to `CCOC(=O)C1=C(NC(=S)NC(=O)c2ccccc2)c2ccccc2CC1C(C)C` (centres undefined), the z-score was active: 3.46.
As to `COc1ccccc1NC(=O)c1cc(S(=O)(=O)N2CCC3(CC2)OCCO3)ccc1F`, the z-score is -0.251.
In turn, `Cc1nc(NC(=O)C2CC3CCCC(C2)C3=O)sc1C` (centres undefined) had a z-score of 0.238.
In turn, `O=C1CC(C(=O)Nc2ccc(Br)cc2)C2(CCCC2)O1` (centres undefined) registered a z-score of 2.34.
As for `COc1ccc(C2=CC(c3ccc(OC)c(OC)c3)n3nnnc3N2)c(OC)c1` (centres undefined), the z-score is -0.596.
Regarding `Cc1ccc2nc(-c3ccc(NC(=O)CN(c4ccccc4C)S(C)(=O)=O)cc3)sc2c1`, the z-score was 0.0306.
`CCOCC(=O)Nc1cc(C(=O)OC)cc(C(=O)OC)c1`: the z-score stood at 0.617.
The value for `Cc1ccc(-c2nnc(SCC(=O)NCC3CCCO3)n2C)cc1` (centres undefined) was -0.0403; that for `CCOc1ccc(/C=N/NC(=O)c2ccccc2NC(=O)c2ccc(OC)cc2)cc1` was -0.0531.
`CCN(Cc1ccccc1)S(=O)(=O)c1ccc(C(=O)Nc2nnc(C3CC3)o2)cc1` showed a z-score of 0.994.
Regarding `COc1ccc(/C=N/NC(=O)CC(=O)NCc2cccnc2)cc1`, the z-score amounted to 0.13.
The compound `O=c1cc(C(F)(F)C(F)F)oc2ccccc12` showed a z-score of -0.0206.
`N#CC1(C#N)CC(C=O)=C(N)C1(C#N)CC(=O)c1ccc(F)cc1` (centres undefined) yielded a z-score of -0.299.
As to `Cc1cc2nc3c(nc2cc1C)C1(C(=O)O)CCC3(C)C1(C)C` (centres undefined), the z-score is -0.167.
On to `CCc1ccc(S(=O)(=O)NC(CC(=O)O)c2ccccc2)cc1` (centres undefined), for which the z-score came to 0.918.
For `C=CCn1c(-c2ccco2)n[nH]c1=S`, the z-score is 0.645.
`CSc1nc(N)nc(-c2cccs2)c1C#N`: the z-score was -0.212.
`C=CCOc1ccc(C(=O)CC)cc1OC` came in with a z-score of 0.729.
`Cc1nc2ncnn2c(C)c1Cc1c(Cl)cccc1Cl` came in with a z-score of -0.306.
The value for `CCCc1ccc(-c2cc(C(=O)NCCc3ccc(S(N)(=O)=O)cc3)c3ccccc3n2)cc1` was -0.0952; that for `C=CCNC(=O)COc1ccc(Br)cc1Cl` was 0.0502; that for `CN1C(=O)N(C)C2(c3ccccc3)Nn3c(s/c(=C/c4ccccc4F)c3=O)=NC12c1ccccc1` (centres undefined) was -0.12.
Turning to `C=CCN(C)NC(=S)Nc1ccccc1`, the z-score is -0.0707.
Compound `COc1ccccc1NC(=O)CS(=O)(=O)c1cccc2nsnc12` displayed a z-score of 1.99.
The value for `CC1CN(Cc2ccccn2)CCC1=O` (centres undefined) was -0.215.
For `O=C(NCc1ccco1)C(C(=O)c1ccccc1)n1ccccc1=O` (centres undefined), the z-score amounted to 0.391.
Compound `O=C(NCC1CCCO1)/C(=C/c1ccc(Cl)cc1)NC(=O)c1ccccc1` (centres undefined) returned a z-score of 0.00497.
The compound `Cc1ccc([N+](=O)[O-])cc1NC(=O)CCSc1ccc(Cl)cc1` came in with a z-score of 0.07.
`CCOC(=O)CN1NC2(CCC(C)CC2)NC1=S` (centres undefined) gave a z-score of -0.408.
`Cc1cc(-c2n[nH]c(=S)n2/N=C/C(Cl)=C/c2ccccc2)n[nH]1` registered a z-score of -0.527.
Compound `Cn1c(=O)c2c(nc(CN3CCCCC3)n2CCCc2ccccc2)n(C)c1=O` gave a z-score of -0.271.
In turn, `CN(C)S(=O)(=O)c1cccc(C(=O)OCC(=O)NCc2ccccc2)c1` gave a z-score of -0.0286.
`O=C(c1cccc2ccccc12)N1CCN=C1SCc1ccc([N+](=O)[O-])cc1` returned a z-score of -0.184.
`N#CC1=C(N)Oc2n[nH]c(-c3cccs3)c2C1c1ccsc1` (centres undefined) showed a z-score of -2.2.
`COc1ccc(N2CCN(C(c3cccc(OC)c3OC)c3nnnn3C3CCCC3)CC2)cc1` (centres undefined) registered a z-score of -0.849.
`CCCCCCOc1ccc(NC(=O)CC2C(=O)N(CC)C(=S)N2Cc2ccco2)cc1` (centres undefined) registered a z-score of 0.42.
For the compound `CCOc1ccccc1C(=O)N1CCC(C(=O)c2ccc(F)cc2)CC1`, the z-score worked out at 0.0981.
`CCCCn1c(NS(=O)(=O)c2ccccc2)c(S(=O)(=O)c2ccc(C)cc2)c2nc3ccccc3nc21`: the z-score was -0.41.
With `O=C(NCc1ccccc1)C1CCCN(S(=O)(=O)c2cccnc2)C1` (centres undefined), the z-score came out at 0.269.
In turn, `O=C(CN1CCN(c2nc(-c3ccc(Cl)cc3)cs2)CC1)NCc1ccco1` returned a z-score of -0.029.
Under `COC(=O)C1=NN(c2ccccc2)C2C(=O)N(c3ccccc3OC)C(=O)C12` (centres undefined) stands active: -3.39; under `Cc1[nH]c2ccc(Br)cc2c(=O)c1CN1CCCCC1`, -0.169; under `Cc1cccc(Cn2cnc3c(nnn3Cc3ccccc3F)c2=O)c1`, 0.292.
For `Cc1c(NC(=O)CSc2n[nH]c(-c3ccccc3)n2)c(=O)n(-c2ccccc2)n1C`, the z-score was found to be 0.107.
For `CC(=O)Nc1cc(C(F)(F)F)ccc1OCCOc1ccccc1`, the z-score is -1.36.
`Cc1nc2sc(C(c3ccco3)N3CCN(c4cccc(Cl)c4)CC3)c(O)n2n1` (centres undefined) gave a z-score of 0.32.
The value for `CCOC(=O)Cn1c(=O)c2c(nc(N3CCOCC3)n2C)n(C)c1=O` was -0.0307.

(Values after PubChem BioAssay AID488969 (Vanderbilt High Throughput Screening Facility, 2010).)
